# Structures can show the parent of a compound that is named as a salt. ± gives the standard deviation of the averaged measurements. The list shows a part of the results. Single values are uncertain, as repeats are few or missing.
# Assays:
# Experiment in all cases: log2 surviving fraction relative to plate median (drug vs vehicle, or drug+dl922-947 vs dl922-947 alone); ovarian cancer lines: OVCAR4 is platinum-sensitive while Ov4Cis resists cisplatin and Ov4Carbo carboplatin; higher = more cell survival
# Conditions in all cases: compound concentration: 10 uM, 192 h
# OVCAR4 = tested on: OVCAR4
# Ov4Carbo = tested on: Ov4Carbo
# Ov4Cis = tested on: Ov4Cis
# [1] = dl922-947 oncolytic adenovirus co-treatment: MOI 10
# [2] = dl922-947 oncolytic adenovirus co-treatment: none
compound,measurement,setting,value
COc1cc(/C=C/C(=O)CC(=O)/C=C/c2ccc(O)c(OC)c2)ccc1O [Curcumin],log2 surviving fraction,OVCAR4; [1],-0.345 ± 1.1
same,log2 surviving fraction,OVCAR4; [2],-3.01 ± 2
same,log2 surviving fraction,Ov4Carbo; [1],-0.792
same,log2 surviving fraction,Ov4Carbo; [2],-3.67
same,log2 surviving fraction,Ov4Cis; [1],-1.55
same,log2 surviving fraction,Ov4Cis; [2],-4.65
Cc1cccc(C)c1NC(=O)CN1CCCC1=O [Nefiracetam (Translon)],log2 surviving fraction,OVCAR4; [1],0.657 ± 0.021
same,log2 surviving fraction,OVCAR4; [2],-0.226 ± 0.0077
same,log2 surviving fraction,Ov4Carbo; [1],-0.947
same,log2 surviving fraction,Ov4Carbo; [2],0.0771
same,log2 surviving fraction,Ov4Cis; [1],0.487
same,log2 surviving fraction,Ov4Cis; [2],-0.0657
CO[C@H]1/C=C/O[C@@]2(C)Oc3c(C)c(O)c4c(c3C2=O)C2=NC3(CCN(CC(C)C)CC3)NC2=C(NC(=O)/C(C)=C\C=C\[C@H](C)[C@H](O)[C@@H](C)[C@@H](O)[C@@H](C)[C@H](OC(C)=O)[C@@H]1C)C4=O [Rifabutin (Mycobutin)],log2 surviving fraction,OVCAR4; [1],0.209 ± 1.4
same,log2 surviving fraction,OVCAR4; [2],-1.47 ± 0.43
same,log2 surviving fraction,Ov4Carbo; [1],-0.193
same,log2 surviving fraction,Ov4Carbo; [2],-0.729
same,log2 surviving fraction,Ov4Cis; [1],-1.48
same,log2 surviving fraction,Ov4Cis; [2],-2.09
CN1CC(=O)N2[C@H](c3ccc4c(c3)OCO4)c3[nH]c4ccccc4c3C[C@@H]2C1=O [Tadalafil (Cialis)],log2 surviving fraction,OVCAR4; [1],-0.0619 ± 0.96
same,log2 surviving fraction,OVCAR4; [2],0.0424 ± 0.18
same,log2 surviving fraction,Ov4Carbo; [1],0.646
same,log2 surviving fraction,Ov4Carbo; [2],-1.33
same,log2 surviving fraction,Ov4Cis; [1],0.438
same,log2 surviving fraction,Ov4Cis; [2],0.333
CN(C)/N=N/c1[nH]cnc1C(N)=O [Dacarbazine (DTIC-Dome)],log2 surviving fraction,OVCAR4; [1],0.0438 ± 0.15
same,log2 surviving fraction,OVCAR4; [2],1.89 ± 3.1
same,log2 surviving fraction,Ov4Carbo; [1],-0.768
same,log2 surviving fraction,Ov4Carbo; [2],-0.862
same,log2 surviving fraction,Ov4Cis; [1],-0.346
same,log2 surviving fraction,Ov4Cis; [2],-0.329
N#CC1(c2ccc(NC(=O)c3cccnc3NCc3ccncc3)cc2)CCCC1 [Apatinib (YN968D1)],log2 surviving fraction,OVCAR4; [1],-2.15 ± 0.68
same,log2 surviving fraction,OVCAR4; [2],-1.26 ± 0.77
same,log2 surviving fraction,Ov4Carbo; [1],-1.88
same,log2 surviving fraction,Ov4Carbo; [2],-0.585
same,log2 surviving fraction,Ov4Cis; [1],-0.942
same,log2 surviving fraction,Ov4Cis; [2],-2.91
CCCCOc1cc(C(=O)NCCN(CC)CC)c2ccccc2n1 [Dibucaine HCL],log2 surviving fraction,OVCAR4; [1],-0.186 ± 0.37
same,log2 surviving fraction,OVCAR4; [2],0.12 ± 1.1
same,log2 surviving fraction,Ov4Carbo; [1],-2.14
same,log2 surviving fraction,Ov4Carbo; [2],-0.232
same,log2 surviving fraction,Ov4Cis; [1],-1.81
same,log2 surviving fraction,Ov4Cis; [2],-0.151
Cc1cc(C(C#N)c2ccc(Cl)cc2)c(Cl)cc1NC(=O)c1cc(I)cc(I)c1O (stereo not drawn) [Closantel Sodium],log2 surviving fraction,OVCAR4; [1],0.0328 ± 0.063
same,log2 surviving fraction,OVCAR4; [2],0.349 ± 0.0062
same,log2 surviving fraction,Ov4Carbo; [1],1.63
same,log2 surviving fraction,Ov4Carbo; [2],-2.36
same,log2 surviving fraction,Ov4Cis; [1],0.996
same,log2 surviving fraction,Ov4Cis; [2],-2.79
O=C(O)c1cc(-c2ccccc2)nc2ccccc12 [Cinchophen],log2 surviving fraction,OVCAR4; [1],-0.00526 ± 0.046
same,log2 surviving fraction,OVCAR4; [2],-0.208 ± 0.57
same,log2 surviving fraction,Ov4Carbo; [1],0.289
same,log2 surviving fraction,Ov4Carbo; [2],0.297
same,log2 surviving fraction,Ov4Cis; [1],-0.238
same,log2 surviving fraction,Ov4Cis; [2],-0.255
Cn1c(=O)c2[nH]cnc2n(C)c1=O [Aminophylline (Truphylline)],log2 surviving fraction,OVCAR4; [1],0.465 ± 0.099
same,log2 surviving fraction,OVCAR4; [2],0.503 ± 0.47
same,log2 surviving fraction,Ov4Carbo; [1],-0.406
same,log2 surviving fraction,Ov4Carbo; [2],-1.23
same,log2 surviving fraction,Ov4Cis; [1],0.566
same,log2 surviving fraction,Ov4Cis; [2],0.0605
CO[C@@]1(NC(=O)C(C(=O)O)c2ccc(O)cc2)C(=O)N2C(C(=O)O)=C(CSc3nnnn3C)CO[C@@H]21 (stereo partly drawn) [Moxalactam Disodium],log2 surviving fraction,OVCAR4; [1],0.311 ± 0.0043
same,log2 surviving fraction,OVCAR4; [2],0.285 ± 0.45
same,log2 surviving fraction,Ov4Carbo; [1],0.798
same,log2 surviving fraction,Ov4Carbo; [2],0.0398
same,log2 surviving fraction,Ov4Cis; [1],0.66
same,log2 surviving fraction,Ov4Cis; [2],0.226
NC[C@@H]1O[C@H](O[C@H]2[C@@H](O)[C@H](O[C@@H]3[C@@H](O)[C@H](N)C[C@H](N)[C@H]3O[C@H]3O[C@H](CO)[C@@H](O)[C@H](O)[C@H]3N)O[C@@H]2CO)[C@H](N)[C@@H](O)[C@@H]1O [Paromomycin Sulfate],log2 surviving fraction,OVCAR4; [1],0.223 ± 0.35
same,log2 surviving fraction,OVCAR4; [2],0.572 ± 0.21
same,log2 surviving fraction,Ov4Carbo; [1],-0.0408
same,log2 surviving fraction,Ov4Carbo; [2],1.01
same,log2 surviving fraction,Ov4Cis; [1],-0.637
same,log2 surviving fraction,Ov4Cis; [2],0.809
C=C1C[C@@H]2[C@H](CC[C@]3(C)C(=O)CC[C@@H]23)[C@@]2(C)C=CC(=O)C=C12 [Exemestane],log2 surviving fraction,OVCAR4; [1],0.374 ± 0.28
same,log2 surviving fraction,OVCAR4; [2],-1.3 ± 2.3
same,log2 surviving fraction,Ov4Carbo; [1],0.207
same,log2 surviving fraction,Ov4Carbo; [2],0.809
same,log2 surviving fraction,Ov4Cis; [1],0.16
same,log2 surviving fraction,Ov4Cis; [2],0.599
C[C@H]1C[C@@H]2[C@H]([C@@H](O)C[C@@]3(C)[C@H]2CC[C@]3(O)C(=O)CO)[C@@]2(C)C=CC(=O)C=C12 [Methylprednisolone],log2 surviving fraction,OVCAR4; [1],0.388 ± 0.98
same,log2 surviving fraction,OVCAR4; [2],-0.233 ± 0.11
same,log2 surviving fraction,Ov4Carbo; [1],1.5
same,log2 surviving fraction,Ov4Carbo; [2],1.08
same,log2 surviving fraction,Ov4Cis; [1],0.679
same,log2 surviving fraction,Ov4Cis; [2],-1.14
CNCC[C@H](Oc1cccc2ccccc12)c1cccs1 [Duloxetine HCl (Cymbalta)],log2 surviving fraction,OVCAR4; [1],-4.85 ± 2.1
same,log2 surviving fraction,OVCAR4; [2],-2.87 ± 0.39
same,log2 surviving fraction,Ov4Carbo; [1],-6.93
same,log2 surviving fraction,Ov4Carbo; [2],-5
same,log2 surviving fraction,Ov4Cis; [1],-6.39
same,log2 surviving fraction,Ov4Cis; [2],-2.34
O=C(CCNNC(=O)c1ccncc1)NCc1ccccc1 [Nialamide],log2 surviving fraction,OVCAR4; [1],0.669 ± 0.51
same,log2 surviving fraction,OVCAR4; [2],0.316 ± 0.12
same,log2 surviving fraction,Ov4Carbo; [1],-1.15
same,log2 surviving fraction,Ov4Carbo; [2],-1.12
same,log2 surviving fraction,Ov4Cis; [1],-0.124
same,log2 surviving fraction,Ov4Cis; [2],0.0682
O=C(CCCCCCC(=O)Nc1ccccc1)NO [Vorinostat (SAHA)],log2 surviving fraction,OVCAR4; [1],-5.23 ± 0.12
same,log2 surviving fraction,OVCAR4; [2],-9.62 ± 3.1
same,log2 surviving fraction,Ov4Carbo; [1],-4.27
same,log2 surviving fraction,Ov4Carbo; [2],-10.7
same,log2 surviving fraction,Ov4Cis; [1],-5.23
same,log2 surviving fraction,Ov4Cis; [2],-12.8
C[C@H](CCC(=O)O)[C@H]1CC[C@H]2[C@@H]3CC[C@@H]4C[C@H](O)CC[C@]4(C)[C@H]3CC[C@]12C [Lithocholic acid],log2 surviving fraction,OVCAR4; [1],-0.803 ± 0.71
same,log2 surviving fraction,OVCAR4; [2],0.458 ± 0.69
same,log2 surviving fraction,Ov4Carbo; [1],-0.382
same,log2 surviving fraction,Ov4Carbo; [2],0.317
same,log2 surviving fraction,Ov4Cis; [1],-0.247
same,log2 surviving fraction,Ov4Cis; [2],-0.904
COc1cc([C@@H]2c3cc4c(cc3[C@@H](O[C@@H]3O[C@@H]5CO[C@@H](C)O[C@H]5[C@H](O)[C@H]3O)[C@H]3COC(=O)[C@H]23)OCO4)cc(OC)c1O [Etoposide (VP-16)],log2 surviving fraction,OVCAR4; [1],-3.89 ± 0.41
same,log2 surviving fraction,OVCAR4; [2],-3.52 ± 0.33
same,log2 surviving fraction,Ov4Carbo; [1],-4.18
same,log2 surviving fraction,Ov4Carbo; [2],-5.94
same,log2 surviving fraction,Ov4Cis; [1],-6.5
same,log2 surviving fraction,Ov4Cis; [2],-9.56
CC(C)NCC(O)c1ccc(NS(C)(=O)=O)cc1 (stereo not drawn) [Sotalol (Betapace)],log2 surviving fraction,OVCAR4; [1],0.159 ± 0.11
same,log2 surviving fraction,OVCAR4; [2],-0.225 ± 0.47
same,log2 surviving fraction,Ov4Carbo; [1],-0.261
same,log2 surviving fraction,Ov4Carbo; [2],-0.251
same,log2 surviving fraction,Ov4Cis; [1],0.324
same,log2 surviving fraction,Ov4Cis; [2],-0.131
CC(=O)N1CCN(c2ccc(OCC3COC(Cn4ccnc4)(c4ccc(Cl)cc4Cl)O3)cc2)CC1 (stereo not drawn) [Ketoconazole],log2 surviving fraction,OVCAR4; [1],-0.341 ± 0.19
same,log2 surviving fraction,OVCAR4; [2],-1.66 ± 0.7
same,log2 surviving fraction,Ov4Carbo; [1],-0.366
same,log2 surviving fraction,Ov4Carbo; [2],-1.52
same,log2 surviving fraction,Ov4Cis; [1],-0.452
same,log2 surviving fraction,Ov4Cis; [2],-0.468
CCN1CCN(c2cc(-c3ccc(F)cc3)c3c(n2)CCCCCC3)CC1 [Blonanserin (Lonasen)],log2 surviving fraction,OVCAR4; [1],-0.505 ± 0.37
same,log2 surviving fraction,OVCAR4; [2],0.24 ± 0.071
same,log2 surviving fraction,Ov4Carbo; [1],0.127
same,log2 surviving fraction,Ov4Carbo; [2],-2.09
same,log2 surviving fraction,Ov4Cis; [1],-0.563
same,log2 surviving fraction,Ov4Cis; [2],0.476
CC(C)Cc1ccc(C(C)C(=O)O)cc1 (stereo not drawn) [Ibuprofen Lysine (NeoProfen)],log2 surviving fraction,OVCAR4; [1],-0.173 ± 0.37
same,log2 surviving fraction,OVCAR4; [2],-0.11 ± 0.11
same,log2 surviving fraction,Ov4Carbo; [1],0.491
same,log2 surviving fraction,Ov4Carbo; [2],-0.214
same,log2 surviving fraction,Ov4Cis; [1],0.456
same,log2 surviving fraction,Ov4Cis; [2],-0.457

# Source: the supplement of paper PMC8813932
